The values that follow come from the supplement of paper PMC12217912.

The other results are listed elsewhere or left out. The full chains were built here from the parent and the listed change. Values near 0.05 are background.

B1: TEV protease; numbered along this chain (parent)
chain: MGESLFKGPRDYNPISSSICHLTNESDGHTTSLYGIGFGPFIITNKHLFRRNNGTLVVQSLHGVFKVKDTTTLQQHLVDGRDMIIIRMPKDFPPFPQKLKFREPQREERICLVTTNFQTKSMSSMVSDTSCTFPSGDGIFWKHWIQTKDGQCGSPLVSTRDGFIVGIHSASNFTNTNNYFTSVPKNFMELLTNQEAQQWVSGWRLNADSVLWGGHKVFMVKPEEPFQPVKEATQL

The variants in the assay derive from B1. Nature of the assay: raw area under fraction-flipped curve 0-4 h after induction (AUC4h, not background-subtracted), DNA-recorder readout of cleavage of the substrate (dimensionless); higher = more cleavage of the substrate by the protease variant. As to conditions: temperature: 34 °C; time window: 0-4 h after rhamnose induction.
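Further: Bxb1 expression induced with 0.2% (w/v) L-rhamnose at OD600 near 0.5, cultures sampled hourly, flipped fraction per protease–substrate barcode pair counted by paired-end Illumina sequencing.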

MGESLFKSPRDYNPISSSICHLTNESDGHTTSLYGIGFGPFIITNKHLFRRNNGTLVVQSLHGVFKVKDTTTLQQHLVDGRDMIIIRMPKDFPPFPQKLKFREPQREERICLVTTNFQTKSMSSMVSDTSCTFPSGDGIFWKHWIQTKDGQCGSPLVSTRDGFIVGIHSASNFTNTNNYFTSVPKNFMELLTNQEAQQWVSGWRLNADSVLWGGHKVFMVKPEEPFQPVKEATQL [G8S]: the “area with substrate ENLCFQS” value was determined as 0.0844, the “area with substrate ENLDFQS” value was found to be 0.0671, the “area with substrate ENLFFQS” value was 0.0805 and the “area with substrate ENLHFQS” value is 0.0662. Further, the “area with substrate ENLIFQS” value is 0.0854, the “area with substrate ENLKFQS” value is 0.0718, the “area with substrate ENLLFQS” value worked out at 0.0625 and the “area with substrate ENLNFQS” value is 0.0606. Also, the “area with substrate ENLPFQS” value was 0.0539, the “area with substrate ENLRFQS” value amounted to 0.0743 and the “area with substrate ENLSFQS” value amounted to 0.0603.
Regarding MGESLFKGPRDYNPISSSICHLTNESDGHTTSLYGIGFGPFIITNKHLFRRNNGTLVVQSLHGVFKVKDTTTLQQHLVDGRDMIIIRMPKDFPPFPQKLKFREPQREERICLVTTNFQTPSMSSMVSDTSCTFPSGDGIFWKHWIQTKDGQCGSPLVSTRDGFIVGIHSASNFTNTNNYFTSVPKNFMELLTNQEAQQWVSGWRLNADSVLWGGHKVFMVKPEEPFQPVKEATQL [K120P], the “area with substrate ENLDFQS” value was found to be 0.0659, the “area with substrate ENLEFQS” value amounted to 0.0676, the “area with substrate ENLIFQS” value was found to be 0.0923 and the “area with substrate ENLKFQS” value amounted to 0.0627. The “area with substrate ENLMFQS” value was 0.0603, the “area with substrate ENLNFQS” value is 0.0642, the “area with substrate ENLPFQS” value worked out at 0.0612 and the “area with substrate ENLSFQS” value is 0.0481. The “area with substrate ENLTFQS” value stood at 0.0683.
Regarding MGESLFKGPRDYNPISSSICHLTNESDGHTTSLYGIGFGPFIITNKHLFRRNNGTLVVQSLHGVFKVKDTTTLQQHLVDGRDMIIIRMPKDFPPFFQKLKFREPQREERICLVTTNFQTKSMSSMVSDTSCTFPSGDGIFWKHWIQTKDGQCGSPLVSTRDGFIVGIHSASNFTNTNNYFTSVPKNFMELLTNQEAQQWVSGWRLNADSVLWGGHKVFMVKPEEPFQPVKEATQL [P96F], the “area with substrate ENLCFQS” value was found to be 0.0756, the “area with substrate ENLDFQS” value was found to be 0.0564, the “area with substrate ENLEFQS” value came to 0.0706 and the “area with substrate ENLFFQS” value turned out to be 0.0948. The “area with substrate ENLIFQS” value is 0.0749, the “area with substrate ENLKFQS” value was 0.0733, the “area with substrate ENLLFQS” value was determined as 0.0747 and the “area with substrate ENLNFQS” value was found to be 0.0685. Moreover, the “area with substrate ENLQFQS” value stood at 0.0655, the “area with substrate ENLRFQS” value was found to be 0.0905, the “area with substrate ENLTFQS” value stood at 0.0537 and the “area with substrate ENLWFQS” value turned out to be 0.0666.
MGESLFKGPRDYNPISSSICHLTNESDGHTTSLYGIGFGPFIITNKHLFRRNNGTLVVQSLHGVFKVKDTTTLQQHLVDGRDMIIIRMPKDFPPFKQKLKFREPQREERICLVTTNFQTKSMSSMVSDTSCTFPSGDGIFWKHWIQTKDGQCGSPLVSTRDGFIVGIHSASNFTNTNNYFTSVPKNFMELLTNQEAQQWVSGWRLNADSVLWGGHKVFMVKPEEPFQPVKEATQL [P96K]: the “area with substrate ENLDFQS” value was 0.0972, the “area with substrate ENLEFQS” value is 0.0513, the “area with substrate ENLFFQS” value turned out to be 0.0786 and the “area with substrate ENLHFQS” value stood at 0.0752. In addition, the “area with substrate ENLKFQS” value was 0.0827, the “area with substrate ENLLFQS” value stood at 0.0609, the “area with substrate ENLNFQS” value turned out to be 0.0754 and the “area with substrate ENLSFQS” value stood at 0.0658. Also, the “area with substrate ENLWFQS” value is 0.0651.
As to MGESLFKGPRDYNPISSSICHLTNESDGHTTSLYGIGFGPFIITNKHLFRRNNGTLVVQSLHGVFKVKDTTTLQQHLVDGRDMIIIRMPKDFPPFPQKLKFREPQREERICLVTTNFQTKSMSSMVSDTSCTFPSGDGIFWKHRIQTKDGQCGSPLVSTRDGFIVGIHSASNFTNTNNYFTSVPKNFMELLTNQEAQQWVSGWRLNADSVLWGGHKVFMVKPEEPFQPVKEATQL [W144R], the “area with substrate ENLCFQS” value turned out to be 0.0835, the “area with substrate ENLDFQS” value turned out to be 0.06, the “area with substrate ENLEFQS” value amounted to 0.061 and the “area with substrate ENLFFQS” value amounted to 0.0702. Also, the “area with substrate ENLHFQS” value amounted to 0.0779, the “area with substrate ENLIFQS” value came out at 0.0622, the “area with substrate ENLKFQS” value came to 0.0678 and the “area with substrate ENLLFQS” value is 0.054. The “area with substrate ENLQFQS” value stood at 0.0634.
As to MGESLFKGPRDYNPISSSICHLTNESDGHTTSLYGIGFGPFIITNKHLFRRNNGTLVVQSLHGVFKVKDTTTLQQHLVDGRDMIIIRMPKDFPPFPQKLKFREPQREERICLVTTNFQTKSMSSMVSDTSCTFPSGDGIFWKHWIQTKDGQCGSPLVSTRDGFIVGIHSASNFTNTNNYFTSVPKNFMELLTNQEAQQWVSGWRLNADSVLWGGHKVFMVKPEEPFQPVKEVTQL [A232V], the “area with substrate ENLDFQS” value came to 0.0752, the “area with substrate ENLHFQS” value was 0.0645, the “area with substrate ENLQFQS” value amounted to 0.0628 and the “area with substrate ENLWFQS” value came out at 0.0586.
Consider MGESLFKGPRDYNPISSSICHLTNESDGHTTSLYGIGFGPFIITNKHLFRRNNGTLVVQSLHGVFKVKDTTTLQQHLVDGRDMIIIRMPKDFPPFPQKLKFREPQREERICLVTTNFQTKSMSSMVSDTSCTFPSGDGIFWKHWIQTKDGQCGSPLVSTRDGFIVGIHSASNFTNTNNYFTSVPKNFMELLTNQEAQQWVSGWRLNADSVLWGGHKVFMVKPEEPFQPVKECTQL [A232C], for which the “area with substrate ENLCFQS” value amounted to 0.0684, the “area with substrate ENLDFQS” value came to 0.0631, the “area with substrate ENLFFQS” value was found to be 0.0891 and the “area with substrate ENLKFQS” value amounted to 0.0851. Further, the “area with substrate ENLNFQS” value was 0.084, the “area with substrate ENLRFQS” value amounted to 0.067, the “area with substrate ENLVFQS” value is 0.0938 and the “area with substrate ENLWFQS” value was 0.0693.
On to MGESLFKGPRDYNPISSSICHLTNESDGHTTSLYGIGFGPFIITNKHLFRRNNGTLVVQSLHGVFKVKDTTTLQQHLVDKRDMIIIRMPKDFPPFPQKLKFREPQREERICLVTTNFQTKSMSSMVSDTSCTFPSGDGIFWKHWIQTKDGQCGSPLVSTRDGFIVGIHSASNFTNTNNYFTSVPKNFMELLTNQEAQQWVSGWRLNADSVLWGGHKVFMVKPEEPFQPVKEATQL [G80K], for which the “area with substrate ENLDFQS” value worked out at 0.0631, the “area with substrate ENLEFQS” value worked out at 0.0676, the “area with substrate ENLFFQS” value was 0.104 and the “area with substrate ENLGFQS” value amounted to 0.0673. Further, the “area with substrate ENLHFQS” value stood at 0.073, the “area with substrate ENLIFQS” value came to 0.075, the “area with substrate ENLKFQS” value stood at 0.0754 and the “area with substrate ENLMFQS” value came to 0.0633. Moreover, the “area with substrate ENLNFQS” value is 0.0795, the “area with substrate ENLPFQS” value was found to be 0.062, the “area with substrate ENLRFQS” value was 0.0605 and the “area with substrate ENLSFQS” value amounted to 0.0788. Further, the “area with substrate ENLVFQS” value is 0.0708.
Consider MGESLFKGPRDYNPISSSICHLTNESDGHTTSLYGIGFGPFIITNKHLFRRNNGTLVVQSLHGVFKVKDTTTLQQHLVDCRDMIIIRMPKDFPPFPQKLKFREPQREERICLVTTNFQTKSMSSMVSDTSCTFPSGDGIFWKHWIQTKDGQCGSPLVSTRDGFIVGIHSASNFTNTNNYFTSVPKNFMELLTNQEAQQWVSGWRLNADSVLWGGHKVFMVKPEEPFQPVKEATQL [G80C], for which the “area with substrate ENLCFQS” value was found to be 0.0805, the “area with substrate ENLFFQS” value was determined as 0.0746, the “area with substrate ENLHFQS” value was determined as 0.0704 and the “area with substrate ENLIFQS” value amounted to 0.106. Further, the “area with substrate ENLKFQS” value worked out at 0.0545, the “area with substrate ENLLFQS” value is 0.0674, the “area with substrate ENLNFQS” value came to 0.0623 and the “area with substrate ENLPFQS” value is 0.0685. Besides, the “area with substrate ENLQFQS” value is 0.0714, the “area with substrate ENLSFQS” value came to 0.0745 and the “area with substrate ENLWFQS” value worked out at 0.0673.
As to MGESLFKGPRDYNPISSSICHLTNESDGHTTSLYGIGFGPFIITNKHLFRRNNGTLVVQSLHGVFKVKDTTTLQQHLVDGRDMIIIRMPKDFPPFPQKLKFREPQREERICLVTTNFQTKSMSSMVSDTSCTFPSGDGIFWKHWIQTKDGQCGSPLVSTRDGFIVGIHSASNFTNTNNYFTSVPKNFMELLTNQEAQQWVSGWRLNADSVLWGGHKVFMVKPENPFQPVKEATQL [E224N], the “area with substrate ENLDFQS” value turned out to be 0.0667, the “area with substrate ENLEFQS” value worked out at 0.0557, the “area with substrate ENLFFQS” value turned out to be 0.0845 and the “area with substrate ENLGFQS” value was 0.0598. For the same variant, the “area with substrate ENLIFQS” value was determined as 0.0836, the “area with substrate ENLKFQS” value worked out at 0.0975, the “area with substrate ENLLFQS” value is 0.0577 and the “area with substrate ENLMFQS” value came out at 0.0865. Further, the “area with substrate ENLNFQS” value is 0.0666, the “area with substrate ENLPFQS” value was 0.0266, the “area with substrate ENLQFQS” value was 0.0748 and the “area with substrate ENLRFQS” value was 0.0684. The “area with substrate ENLSFQS” value came out at 0.0637, the “area with substrate ENLTFQS” value amounted to 0.0679 and the “area with substrate ENLWFQS” value is 0.0889.
